The whole screen tested about 52,000 compounds, of which about 1,700 (3.3%) were called active. Rule as the data show it: active = survival mostly below about 52% (no sharp cut-off); inactive = mostly above about 56%. The list shows a part of the results.

The subject of this assay is Wild type. Description: growth inhibition of S. aureus wild type versus tarO mutant, primary screen, teichoic acid synthesis inhibitors, RN4220, OD600 (AID 463173). The note with it: S. aureus RN4220 wild type/DeltatarO growth, OD600, 18 h, active compounds read low, screened at 18.75 µg/mL (by protocol).
Regarding `Cc1ccc(SCC(=O)Nc2ccc3oc(-c4cccc(Cl)c4)nc3c2)cc1`, the survival is inactive: 98%.

On to `CC(C)(O)/C(=C\C#N)n1c(=O)oc2ccccc21`, for which the survival was inactive: 101%.

Turning to `Cc1cc(-c2ccc(C)c(S(=O)(=O)NCC3CCN(Cc4ccccc4F)CC3)c2)on1`, the survival was inactive: 66%.

As to `CS(=O)(=O)c1ccc2sc(N)nc2c1`, the survival is inactive: 110%.

As for `O=C(NCc1ccccc1)C(=O)Nc1c2c(nn1-c1ccccc1)CSC2`, the survival is inactive: 112%.

For the compound `Cc1ccc(C(c2c(O)cc(C)n(Cc3ccco3)c2=O)N2CCC(C)CC2)cc1` (stereo unspecified), the survival is inactive: 69%.

Take `COc1ccc(OC)c(CNCc2c(C(=O)O)n(Cc3cccc(F)c3)c3cc(OC)ccc23)c1`: the survival was active: -3%.

Consider `NC(=O)CN(C1CCCCC1)S(=O)(=O)c1ccc(Br)cc1`, for which the survival is inactive: 104%.

Take `Cc1cc(C)cc(NC(=O)C2CC(=O)N(c3ccccc3)C2)c1` (stereo unspecified): the survival was inactive: 66%.

As to `Cc1ccccc1CCNC(=O)c1ccc2c(c1)nc1n2CCCCC1`, the survival was inactive: 84%.

On to `Cc1cccc(-c2nc(CN3CCCC(C(=O)NCCc4ccc(Cl)cc4)C3)c(C)o2)c1` (stereo unspecified), for which the survival is inactive: 29%.

As to `O=C(CCn1c(=O)c2sccc2n(Cc2ccc(F)cc2Cl)c1=O)NCc1ccc2c(c1)OCO2`, the survival is inactive: 92%.

Turning to `O=C(Nc1sc2c(c1C(=O)NCC1CCCO1)CCCC2)c1cc(=O)c2ccccc2o1` (stereo unspecified), the survival was inactive: 80%.

Turning to `Cc1ccc(-c2nc3ccccc3o2)cc1NC(=O)Cc1ccc(Cl)cc1`, the survival is inactive: 78%.

As to `CCOC(=O)c1cccc(NC(=O)c2cnc3sc(N4CCOCC4)nn3c2=O)c1`, the survival is inactive: 97%.

For the compound `Cc1ccc(-c2cc(C(=O)Oc3ccc(C#N)cc3)no2)cc1C`, the survival was inactive: 82%.

Regarding `Cc1ccc2c(c1)c1c(c(=O)n(Cc3ccccc3)c(=O)n1CC(=O)Nc1ccccc1F)n2C`, the survival is inactive: 70%.

Regarding `COCCNC(=O)CCCn1c(SCC(=O)NCc2ccc(C)cc2)nc2c(sc3ccccc32)c1=O`, the survival was inactive: 89%.

Turning to `CCC(C)NC(=O)c1sc2nc(C)c(C(=O)Nc3ccc(C)cc3C)c(-c3ccc(NC(C)=O)cc3)c2c1N` (stereo unspecified), the survival was inactive: 72%.

In the case of `O=C(O)c1ccc(Cn2c(SCc3ccc(F)cc3)nc3ccncc32)cc1`, the survival is inactive: 78%.

Turning to `Cc1ccc2nc(NC(=O)CSc3nccn3Cc3ccc(F)cc3)sc2c1`, the survival was inactive: 80%.

`COCCNc1ccc2cc(S(=O)(=O)N3CCCCC3)ccc2n1`: the survival was inactive: 56%.

Regarding `Cc1nc2ncccn2c1-c1csc(NCc2ccco2)n1`, the survival was inactive: 101%.

Consider `CC(C)NC(=O)CN1C(=O)CCn2nc(-c3cn(C)c4ccccc34)cc21`, for which the survival is inactive: 73%.

With `COc1ccc(Cn2c(C(=O)O)c(CNCc3ccc(SC)cc3)c3ccc(OC)cc32)cc1`, the survival is inactive: 73%.

Turning to `Cc1ccccc1OCCn1cc(/C=C(\C#N)C(=O)NC2CC2)c2ccccc21`, the survival is inactive: 82%.

As to `CCc1ccc(NS(=O)(=O)c2[nH]ncc2C(=O)OC)cc1`, the survival was inactive: 63%.

For the compound `Cc1ccccc1Cn1c(=O)n(-c2ccc(Cl)cc2)c(=O)c2c3c(sc21)CCCC3`, the survival is inactive: 99%.

With `Cc1ccccc1NC(=O)c1sc2nc3c(cc2c1N)CN(Cc1ccccc1)CC3`, the survival is inactive: 82%.

In the case of `CCCS(=O)(=O)N1CCC(C(=O)NCCOC)CC1`, the survival is inactive: 76%.

For the compound `Cc1cc(F)ccc1NC(=O)C1CCC(CNS(=O)(=O)c2ccc3c(c2)CCCC(=O)N3)CC1` (stereo unspecified), the survival was inactive: 77%.

Turning to `COc1ccc(OC)c(S(=O)(=O)NCC(c2cccs2)S(=O)(=O)c2ccc(F)cc2)c1` (stereo unspecified), the survival is inactive: 124%.

Consider `COc1cccc(N2CCN(C(=O)CN3CCSc4ccccc43)CC2)c1`, for which the survival was inactive: 59%.

Consider `COc1ccccc1CNc1ncnc2c1cnn2-c1ccc(C)cc1`, for which the survival was inactive: 66%.

With `O=C(c1cc2c(=O)oc3ccccc3c2s1)N1CCN(c2ccccc2)CC1`, the survival was inactive: 144%.

In the case of `COc1ccc2c(c1)c1c(c(=O)n(-c3cccc(C)c3)c(=O)n1Cc1cccc(Cl)c1)n2C`, the survival was inactive: 72%.

On to `Cc1ccc(-n2nc(C)c3c(C)cc(=O)n(CC(=O)Nc4cccc(C)c4C)c32)cc1`, for which the survival was inactive: 124%.

In the case of `O=C(Nc1cc2c(cc1C(=O)c1ccccc1Br)OCCO2)c1cccc(Cl)c1`, the survival is inactive: 71%.

`Cc1ccc(-c2noc(-c3nnn(-c4cccc(C(F)(F)F)c4)c3N)n2)cc1`: the survival is inactive: 96%.

Take `COc1ccc(C(C(=O)NC2CCCCC2)N(Cc2ccc3c(c2)OCO3)C(=O)c2cnccn2)cc1OC` (stereo unspecified): the survival is inactive: 89%.

On to `COc1ccc(-c2nn(-c3ccccc3)cc2C2NC(=O)NC(C)=C2C(=O)OC(C)C)cc1OC` (stereo unspecified), for which the survival is inactive: 73%.

For `O=S(=O)(c1ccc2nc(N3CCN(c4ccccc4F)CC3)ccc2c1)N1CCCCC1`, the survival was inactive: 111%.

With `COc1ccc(N2C(=O)CSC23C(=O)N(Cc2cccc(F)c2)c2ccccc23)cc1Cl` (stereo unspecified), the survival is inactive: 92%.

Regarding `Cc1nc(-n2nc(C)c(CCC(C)C)c2C)sc1C(=O)Nc1ccc(Cl)cc1`, the survival was inactive: 89%.

Take `Cc1ccc(NC(=O)c2ccc(=O)n(Cc3ccccc3C)c2)c(C)c1`: the survival was inactive: 78%.

Take `CCOC(=O)c1c(S(=O)(=O)N2CCCC(C(=O)NCc3ccccc3OC)C2)c(C)n(C)c1C` (stereo unspecified): the survival is inactive: 105%.

Take `CCc1nc(SC)ncc1C(=O)N1CCN(c2cc(C)ccc2C)CC1`: the survival was inactive: 79%.

In the case of `Cc1ccc(CN2CCCn3nc(C(=O)NCCc4cccc(C)c4)cc3C2=O)cc1`, the survival is inactive: 77%.

For the compound `COC(=O)c1cnn2c(C(F)(F)F)cc(-c3ccccc3)nc12`, the survival is inactive: 93%.

Turning to `CCc1ccccc1NC(=O)CSc1nc2c(oc3ccccc32)c(=O)n1C`, the survival was inactive: 88%.

As for `NC(=O)C1CCN(S(=O)(=O)c2ccc(N3CCCCS3(=O)=O)cc2)CC1`, the survival was inactive: 135%.

For `Cc1ccc(-c2nc(N3CCCC(C)C3)c3ccccc3n2)cc1` (stereo unspecified), the survival was active: -2%.

For `COc1ccc(CCNCc2ccc3c(c2)n(C)c(=O)n3C)cc1OC`, the survival was inactive: 111%.

Take `Cc1ccc(CNC(=O)c2ccc3c(O)c(S(=O)(=O)c4ccc(Cl)cc4)c(=O)[nH]c3c2)cc1`: the survival is inactive: 86%.

For `COc1cccc(CNC(=O)C2CCCN(c3nc4ccccc4n4cccc34)C2)c1` (stereo unspecified), the survival is inactive: 77%.

As to `Cc1nn(C)c2c1c(-c1ccccc1)cc(=O)n2CC(=O)NC(C)C`, the survival was inactive: 70%.

For the origin of these results see PubChem BioAssay AID463173 (ICCB-Longwood Screening Facility, Harvard Medical School, 2010).
